Tested on: S. aureus sarA P1
Assay: In vivo GFP::promoter fusion assay of sarA P1 in IE vegetations
Conditions: 24 hr after single iv dose of 8 mg/kg aspirin
Protocol: Giemsa-staining and fluorescence analysis of P1:GFPuvr S. aureus constructs were performed on valve vegetations excised from rabbits with IE 24 hr following no treatment (control) or a single iv dose of 8 mg/kg aspirin. FIGS. 6A and 6B—respective fluorescence and Giemsa-stains in control animals; FIGS. 6C and 6D—fluorescence or Giemsa stains of aspirin-treated animals.

CC(=O)Oc1ccccc1C(=O)O [aspirin, acetylsalicylic acid]
sarA P1 expression within vegetations: marked reduction
sarA P1 expression within vegetations (listed as Aspirin): suppressed
